# Data as given in publication PMC3938053.
# These are yes or no findings as the source states them, for the method shown.
# B1: SMAD1, endogenous in HaCaT cells, Q15797 1-465 (protein)
# chain: MNVTSLFSFTSPAVKRLLGWKQGDEEEKWAEKAVDALVKKLKKKKGAMEELEKALSCPGQPSNCVTIPRSLDGRLQVSHRKGLPHVIYCRVWRWPDLQSHHELKPLECCEFPFGSKQKEVCINPYHYKRVESPVLPPVLVPRHSEYNPQHSLLAQFRNLGQNEPHMPLNATFPDSFQQPNSHPFPHSPNSSYPNSPGSSSSTYPHSPTSSDPGSPFQMPADTPPPAYLPPEDPMTQDGSQPMDTNMMAPPLPSEINRGDVQAVAYEEPKHWCSIVYYELNNRVGEAFHASSTSVLVDGFTDPSNNKNRFCLGLLSNVNRNSTIENTRRHIGKGVHLYYVGGEVYAECLSDSSIFVQSRNCNYHHGFHPTTVCKIPSGCSLKIFNNQEFAQLLAQSVNHGFETVYELTKMCTIRMSFVKGWGAEYHRQDVTSTPCWIEIHLHGPLQWLDKVLTQMGSPHNPISSVS
# Biological target: SMAD1, endogenous in HaCaT cells (human (endogenous in HaCaT)), Q15797
# Assay: SEC; extracts of unstimulated HaCaT cells only, Superose 6 10/300 GL, 50 mM Tris-HCl 7.5, 150 mM NaCl, 0.03% Brij-35; fractions immunoblotted
# Settings: remark: other sources report otherwise
binder,measurement,value
B1,binding,no binding
